# Reference: the supplement of paper PMC11417369
# ± gives the standard deviation of the averaged measurements. The list shows a part of the results.
# Tested on: PfAP2-I AP2 domain 3 (GST-tagged)
# Test: gcPBM binding intensity (ln(normalized median fluorescence intensity)); higher = stronger DNA binding
# How it was run: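 Binding intensity is the highest Masliner-normalised natural-log median intensity over replicate spots in either probe orientation. To obtain it, GST-tagged P. falciparum DNA-binding domains made in E. coli were incubated for 1 h on an Agilent 4 × 180k array of primer-extended double-stranded 36-bp intergenic genomic probes plus negative controls. Detection used Alexa488 anti-GST antibody with scanning at 488 nm.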
row,Sequence,gcPBM binding intensity (ln)
1,TTCATTTTATAAAAAGCACACATATAGTTATATGCA [CACACA_site9228],8.2 ± 0.34
2,AGTTTACATTAAATCACGCACACAAAAAAAAAAAAA [CACACA_site2419],8.11 ± 0.68
3,TACCTTTTTTATGTTGCACACTGGGATGTTTTCTAA [CACACA_site1653],9.51 ± 0.15
4,AGTAATATAATATAAGCACACGTGTATTTATTTAGT [CACACA_site4246],8.3 ± 0.6
5,TGCACATTTATGTAACGTACAAAATATAATATGTTA [XGTACX_site8255],7.95 ± 0.19
6,GTATAAAAGTAATGTAGTACTTATATATTTTTATTT [XGTACX_site8975],7.58 ± 0.3
7,TCCTTATATTGGCACACACACACAATAAAATGAAAA [CACACA_site4715],8.91
8,GGTTGCTTCAGTGAATGTACATAGTGGTAAACAAGC [XGTACX_site166],8.64 ± 0.76
9,TGGGAGCACAGACACACACACACACCCATATATATA [CACACA_site335],8.54 ± 0.73
10,TACAAAATAAAAATAATTCTTTCAAAAAATAATAAA [XGTACX_negctrl_site368],7.25 ± 0.39
11,GTATATAATATTAGTGCACACACAAAAATGTACTAA [CACACA_site8112],11.4 ± 0.55
12,AGTTTAATATAAAATACACACTACTCTTATAAATAT [CACACA_site6803],7.7 ± 0.51
13,GAAATAATAAATTAAAAATCGTTTATAACATTTAAC [CACACA_negctrl_site425],7.17 ± 0.4
14,ATTTTCTTTCTATGCACACGCACGTATTTGCACCCA [CACACA_site3350],11.5 ± 0.39
15,CTTTTTTTTTGATGTTGTACATATATATTATATAAT [XGTACX_site1321],8.16 ± 0.42
16,TTTTTAATTTAAAAAAATAATATTTTATATTCCGAA [CACACA_negctrl_site108],7.49 ± 0.27
17,AAATATTTATATATATGTACACATATAATATTTTTA [XGTACX_site2338],7.62 ± 0.32
18,TATTTTTTATTTTTTTGTACATATTTGATAATTAAT [XGTACX_site316],7.8 ± 0.52
19,GTAAGCATCAAAAAAGGTACAGAAATTATAAATAAA [XGTACX_site6708],7.8 ± 0.52
20,GAAAATTTATTTTTGGTGCATGTATTTATTTATTTT,9.21 ± 0.042
21,ATTTCTAATATTTTTGCACACTAAACAATAAATTTC [CACACA_site3943],9.41 ± 0.21
22,ATATATGTTATTATTTGTACACACACATATATATCC [XGTACX_site7657],8.27 ± 0.68

row,Sequence,gcPBM binding intensity (ln)
1,TATATATATTCTTTAAAACACACGTAAAGAAGAATT [CACACA_site2718],7.94 ± 0.62
2,AAAAAAAAAAGAAACACACACATATATATATATAAT [CACACA_site5052],7.49 ± 0.55
3,CATTTATTTATATACACACACACAAAAAAAAAAAAA [CACACA_site7279],8.19 ± 0.4
4,TGCTATATTATTATCGCACACCGTTGATTCTAAATA [CACACA_site1207],9.29 ± 0.28
5,ATAAGTGTATAAAAATGTACGTGTATAAAAATATGT [XGTACX_site8235],8.37 ± 0.67
6,ACTAACATATATTCAACACACATATACCTTCAACCC [CACACA_site3011],7.94 ± 0.72
7,CCCATTTAATATTGAGTGCATTTAAATAAATGTATT,10.7 ± 0.56
8,TTTTACAAAGTATGATGTACAAGTATATATAAATAT [XGTACX_site2072],7.76 ± 0.35
9,TATATATATATATACACACACACATATATATATATA [CACACA_site774],9.32 ± 0.5
10,TGAAAAGGAAAATTTTGTACATATACATCAAGGATA [XGTACX_site656],7.62 ± 0.57
11,TACATGAATAAACTTACACACACCCATGCATACATA [CACACA_site97],8.03 ± 0.71
12,AAAAAAAAGAATTTACGTACTTATTATTTATATTTT [XGTACX_site5701],7.49 ± 0.35
13,ACTTTTTATTTTTTACTATATATATATATATATATG [TGCATGCA_negctrl_site463],8.31 ± 0.44
14,AAAATACACAACATATATATATATATATATATATAT [XGTACX_negctrl_site21],9.27 ± 0.54
15,TTTTGTTTTAAAAGTACACACTTTTAATTAGATTTC [CACACA_site4788],7.8 ± 0.37
16,TGATCAATGGATTTAACACACAAAAAAAAAAAAAAA [CACACA_site3845],8.05 ± 0.65
17,TTATTTTCAAAATGTTGTACACACAAAAAAAAAAAA [XGTACX_site3151],8.4 ± 0.42
18,TTTTTTTTTTTTTTTGCATGCAGGTTTTTACCCCTT [TGCATGCA_site381],8.44 ± 0.69
19,ATTTATTTTTTACATTGTACATATTTATTCCTTTTA [XGTACX_site8028],7.91 ± 0.59
20,TATAACATTTTTTTCAAAATAGCTTTAGAAATAAAG [CACACA_negctrl_site718],7.37 ± 0.54
21,ATATGTGGAAATAGAGCACACATATATATAATATAT [CACACA_site8194],9.225 ± 0.092
22,TATGTATATATATAAAGTACGCAAATTTATAATAAG [XGTACX_site8744],7.96 ± 0.4

row,Sequence,gcPBM binding intensity (ln)
1,TTTTTTTTCTTCAAGCGTACTTATTTGTAGAAAAAA [XGTACX_site1728],7.75 ± 0.49
2,TAAGGACTAATATTTGAACACACATATAATATATAC [CACACA_site9325],7.56 ± 0.69
3,TATATATTTGTTCACACACACACAAAAAAAAAAAAA [CACACA_site2475],8.08 ± 0.52
4,GTCATCAAGTATTAAGTGCATTAAAAATAAAATATA,11.3 ± 0.62
5,CATATATATATATATATATATATATTTATTTATTTA [TGCATGCA_negctrl_site165],8.46 ± 0.42
6,TTAAAAGAAAATAACACACACAAAAAAAAAAAAAAA [CACACA_site2117],7.98 ± 0.71
7,TAAATATTATAAATGATACACACTTAAAATACTCAC [CACACA_site2710],7.58 ± 0.5
8,AACATAAGTAAGAATACATGCGGAAATTATATAGAA [TGCATGCA_site112],8 ± 0.73
9,TATAAATTTAAAATGACACACACTAAAGTTATTTAA [CACACA_site6700],7.39 ± 0.56
10,TCCCTTAAAATGATATGTACATAAAAATAAAAAAAA [XGTACX_site836],7.92 ± 0.35
11,AAAACAATAATATACTGTACATATATATAATAACAT [XGTACX_site6188],7.87 ± 0.54
12,CATACACATACACATACACACGCATAGAAACATACG [CACACA_site8666],8.41 ± 0.68
13,AATTTTTCATCAAGTTGTACAATTATTTGTTTGTTT [XGTACX_site3113],7.8 ± 0.59
14,AAATTCAGGTTATATTTTAATTTTTTTTTGTTTTTT [CACACA_negctrl_site924],7.29 ± 0.69
15,CAATATTTTTTATAGGGTACAAAAGATAAAAAAAAA [XGTACX_site6298],8.44 ± 0.71
16,CATATTTGGAAACACACACACATATTTATATATATA [CACACA_site3569],8.59 ± 0.71
17,TATATTTTACTCTTCACACATATACTCAATTTATAT [CACACA_site5357],7.96 ± 0.48
18,AAAAGAAAAAGAAAAACACACATAAATATAAATATA [CACACA_site1879],7.37 ± 0.64
19,AAAATTTTCTTTTTATGTACACATAATTTTACCGGA [XGTACX_site5276],8.01 ± 0.56
20,TTCTTTTCTTTTTTCTTTTTTTTTTTCTTTTCTTTT [GTGCAC_negctrl_site630],7.68 ± 0.61
21,AGAAAAGGACATATATGTACTTATCAATATAGAAAC [XGTACX_site1042],7.83 ± 0.6
22,AAAAAAAAAAAAAAAACATGCAAAATAATATATATA [TGCATGCA_site68],8.42 ± 0.55

row,Sequence,gcPBM binding intensity (ln)
1,TCACATATGTTCCATTGTACTTGTAGTAATTTTTTC [XGTACX_site6473],7.72 ± 0.6
2,GTAATATGTATCCATACACACATACATTTTATTTGC [CACACA_site4640],7.98 ± 0.37
3,ATAAAATGAAATATATGTACGCATCACTTGTTGAAC [XGTACX_site4530],7.87 ± 0.5
4,TGCTAATAATTATTTGTTTAGCAACAAAAAAAAAAA [CACACA_negctrl_site1541],8.18 ± 0.98
5,TAATTAAAAAATAAAAAAAAAAAAAATTAAAACAAA [CACACA_negctrl_site500],7.2 ± 0.58
6,TTCTTTTTAATTTATTTTTTCTTATAACAAGAAAAC [CACACA_negctrl_site201],7.83 ± 0.49
7,GTACATACATAAAACACACACATATATATATATATA [CACACA_site1826],9.32 ± 0.26
8,GCTATAATAAAATTTAAACACACGTAATATAATATA [CACACA_site2592],7.75 ± 0.54
9,AAAATTTCATAAAGACGTACTATAAAAATAAAATTA [XGTACX_site4182],7.79 ± 0.41
10,GAAAAAAAAAAAAATACACACAAATTGGTATATAAC [CACACA_site6315],7.61 ± 0.55
11,TATAAAAAATATCCTTTTTTTATACATCAATATATA [TGCATGCA_negctrl_site291],7.33 ± 0.42
12,CACTAATAGTGGATTACACACATATAGATGTATATA [CACACA_site7234],8.23 ± 0.33
13,AAAAATTCTTGGCGCACACACTTTAAAAGTTAAAAA [CACACA_site6430],8.56 ± 0.31
14,GTATATTTCTTTAAATGTACACATTTTTTTAAAGAG [XGTACX_site1225],7.945 ± 0.064
15,AATTGTATAAATGGAATAATGACTATGATTATACAT [GTGCAC_negctrl_site188],7.86 ± 0.69
16,ACAAAGACAATTTTGTTATATATAAAAAAAAAAAAT [CACACA_negctrl_site253],7.59 ± 0.68
17,TATATAAAACCTTATTGTACTATTAGACTATGCTTA [XGTACX_site6026],7.47 ± 0.47
18,CAAATATCTATTTAGTGTACTAATATATTCAATAAT [XGTACX_site2345],7.93 ± 0.32
19,ATAGCATATATTTTTTGTACATATGTTATATATATA [XGTACX_site2184],8.51 ± 0.099
20,TACAAATATATATGCACACACATATCTGTATATGTG [CACACA_site5663],9.32 ± 0.13
21,ATTAATTTTCCATTCACACATATATATATATATATA [CACACA_site6065],9.38 ± 0.22
22,ATGTAGATATATATCTGTACGTATATGTAAATATTA [XGTACX_site1516],8 ± 0.44
